Laboratory results: the supplement of paper PMC7826260
This is one part of the list. One pool of 16,384 single-stranded DNAs met each Rep nickase domain in vitro at 3 µM enzyme and 37 °C for 1 h; the strands have 90 letters, of which the middle is given. A value is the log2 ratio of uncut reads to the pool without enzyme; more negative means more cut, near 0 not cut, and no call is made. Reads are scaled to the total, so uncut sequences can rise above 0 when many others are cut.

Assays:
Assay in all cases: uncleaved DNA left, log2 of reads against the no-enzyme library (log2 ratio); higher = less cleavage (more negative = more Rep cleavage of the k-mer); sequences stand for … in CTCGTCCG…ACCGGAGA
[1] = tested on: T1, Rep nickase domain of Muscovy duck circovirus
T1 sequence (Rep 1-111, printed without the tag): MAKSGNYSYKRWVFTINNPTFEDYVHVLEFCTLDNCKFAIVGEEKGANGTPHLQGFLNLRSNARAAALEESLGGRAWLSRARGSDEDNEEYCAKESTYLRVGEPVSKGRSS
Description: (§1)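 A pool of 90-nt single-stranded DNAs with seven random bases just before the constant AC of the nick site (name = the seven bases) was cut by 3 µM recombinant His6-SUMO-tagged Rep nickase domain (300 nM DNA, 50 mM HEPES pH 8.0, 50 mM NaCl, 1 mM MnCl2, 1 h, 37 °C, three replicates). Uncut DNA was amplified and sequenced.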

[2] = tested on: T2, Rep nickase domain of banana bunchy top virus
T2 sequence (Rep 1-94, printed without the tag): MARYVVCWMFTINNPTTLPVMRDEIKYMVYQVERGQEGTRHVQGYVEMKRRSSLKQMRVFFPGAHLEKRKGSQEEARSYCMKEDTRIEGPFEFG
Description: as §1

[3] = tested on: T3, Rep nickase domain of cabbage leaf curl virus
T3 sequence (Rep 1-116, printed without the tag): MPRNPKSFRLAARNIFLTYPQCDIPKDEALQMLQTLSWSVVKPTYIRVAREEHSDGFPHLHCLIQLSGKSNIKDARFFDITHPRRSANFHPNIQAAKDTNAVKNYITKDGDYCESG
Description: as §1

[4] = tested on: T4, Rep nickase domain of chickpea chlorotic dwarf virus
T4 sequence (Rep 1-124, printed without the tag): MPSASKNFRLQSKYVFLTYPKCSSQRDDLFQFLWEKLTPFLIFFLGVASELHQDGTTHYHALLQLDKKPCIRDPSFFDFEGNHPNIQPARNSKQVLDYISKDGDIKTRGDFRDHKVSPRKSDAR
Description: as §1

[5] = tested on: T5, Rep nickase domain of faba bean necrotic yellows virus
T5 sequence (Rep 1-98, printed without the tag): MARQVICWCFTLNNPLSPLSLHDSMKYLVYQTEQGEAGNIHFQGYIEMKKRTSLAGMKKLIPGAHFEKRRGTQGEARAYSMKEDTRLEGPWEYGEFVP
Description: as §1

[6] = tested on: T6, Rep nickase domain of maize striate mosaic virus
T6 sequence (Rep 1-117, printed without the tag): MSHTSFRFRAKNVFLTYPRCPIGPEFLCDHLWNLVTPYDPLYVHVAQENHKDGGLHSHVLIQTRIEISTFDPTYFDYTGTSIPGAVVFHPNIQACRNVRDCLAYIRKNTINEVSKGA
Description: as §1

[7] = tested on: T7, Rep nickase domain of porcine circovirus 2
T7 sequence (Rep 2-116, printed without the tag): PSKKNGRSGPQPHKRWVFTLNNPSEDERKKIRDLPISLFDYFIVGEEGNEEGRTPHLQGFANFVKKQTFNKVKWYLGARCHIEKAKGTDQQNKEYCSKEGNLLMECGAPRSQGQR
Description: as §1

[8] = tested on: T8, Rep nickase domain of tomato yellow leaf curl virus
T8 sequence (Rep 1-136, printed without the tag): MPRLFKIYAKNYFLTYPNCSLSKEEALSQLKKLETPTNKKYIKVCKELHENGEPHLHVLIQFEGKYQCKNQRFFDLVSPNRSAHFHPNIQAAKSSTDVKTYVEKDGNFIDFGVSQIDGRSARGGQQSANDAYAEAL
Description: as §1

[9] = tested on: T9, Rep nickase domain of wheat dwarf virus
T9 sequence (Rep 1-137, printed without the tag): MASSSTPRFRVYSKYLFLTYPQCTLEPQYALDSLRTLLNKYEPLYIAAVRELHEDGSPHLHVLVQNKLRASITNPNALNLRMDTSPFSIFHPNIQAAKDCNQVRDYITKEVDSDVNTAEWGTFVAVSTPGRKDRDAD
Description: as §1

Sequence | uncleaved DNA left (log2) [1] | uncleaved DNA left (log2) [2] | uncleaved DNA left (log2) [3] | uncleaved DNA left (log2) [4] | uncleaved DNA left (log2) [5] | uncleaved DNA left (log2) [6] | uncleaved DNA left (log2) [7] | uncleaved DNA left (log2) [8] | uncleaved DNA left (log2) [9]
AGATACC | 0.175 | 0.144 | 0.341 | 0.769 | 0.0605 | 0.761 | 0.0799 | 0.0902 | 0.121
TCGTCCA | 0.0666 | 0.121 | 0.227 | -0.812 | 0.0138 | -0.086 | -0.348 | 0.00455 | 0.119
CTCCACG | 0.0656 | 0.0995 | -0.739 | -0.159 | -0.0122 | -1.11 | 0.102 | 0.0641 | -0.0233
CTACCTT | 0.00513 | -0.0588 | -0.369 | -2.35 | 0.075 | -0.283 | -0.874 | -0.0672 | -0.115
CAAATCG | 0.0632 | 0.121 | -0.744 | 0.326 | 0.038 | -0.749 | 0.244 | 0.0269 | 0.0541
CGATTTA | -0.126 | 0.00538 | -0.101 | -0.957 | -0.149 | -0.441 | -0.379 | -0.0725 | -0.00428
GAGCTTC | -0.096 | -0.1 | 0.0733 | 0.402 | 0.0028 | 0.623 | -0.405 | -0.0549 | -0.0305
TTGAGTC | 0.00861 | 0.0391 | -0.177 | -0.275 | -0.0549 | -1.04 | -0.0583 | -0.0712 | -0.0265
CTAGAGT | 0.0891 | -0.231 | -0.237 | -0.379 | 0.0713 | -0.662 | -0.187 | -0.158 | -0.239
AGAGCTC | 0.0842 | 0.0429 | 0.255 | 0.455 | 0.0607 | 0.582 | -0.0923 | 0.00902 | 0.0264
TGTAATA | 0.056 | 0.112 | 0.13 | -0.359 | 0.011 | 0.509 | 0.00934 | 0.127 | 0.131
GTCAATG | 0.109 | 0.124 | 0.3 | 0.732 | 0.0818 | 1.43 | 0.124 | 0.0489 | -0.01
GCTCGCT | 0.0175 | 0.128 | 0.111 | 0.292 | 0.0422 | -0.429 | 0.0133 | 0.252 | 0.0602
AGGTCTA | 0.0316 | 0.0624 | 0.0769 | -0.196 | -0.0349 | 0.584 | -0.203 | 0.0234 | 0.0788
AGACTGT | -0.0396 | -0.0157 | -0.00955 | 0.688 | -0.00862 | 1.59 | -0.0341 | -0.106 | 0.022
